Read counts are not given, so values of variants with three or more changes are uncertain.

The results in this text go back to the RNAGym collection of RNA variant scans (doi:10.1093/nar/gkz1192).

The chains are these.
B1: CPEB3 Ribozyme (parent)
chain: UAACAGGGGGCCACAGCAGAAGCGUUCACGUCGCAGCCCCUGUCAGAUUCUGGUGAAUCUGCGAAUUCUGCUGUAUAUCUC

In this data set the parent is B1. The data set can be described thus: self-cleavage, relative activity (ratio to wild type); higher = more cleavage; in vitro, sequencing. The method, boiled down:
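Relative activity was defined as the cleaved/total read fraction for a variant divided by the same fraction for the unmutated ribozyme. CPEB3 self-cleaving ribozyme libraries were made by rounds of error-prone PCR, barcoded, and transcribed in vitro with T7 RNA polymerase for 5 hours at 37°C, and cleavage ran through transcription plus a 15 min DNase I step before EDTA. Illumina sequencing of template-switched reverse transcripts gave the reads, and DNA sequencing mapped the barcodes. Averages come from three batches, using variants with at least 5 reads.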
With UAACAGGGGGCUACAGCAGAAGCGUUCACGUCGCAGCCCCUGUCAGAUUCUGGUGAAUCUGCGGAAUCUGCUAUAUAUCCC, the self-cleavage came out at 0.37.

As to UAACAGGGGGCUACAGCAGAAGCGUUCACGUCGCAGCCCCUGUCAGAUUCUGGUGGACCUGCGAAUUCUGCAGUAUAUCUC, the self-cleavage came to 0.43. As for UAACAGGGGGCUACAGCAGGAGCGUUCACGUAGCAGCCCUUGUGAGAUUCUGGUGAAUCCGCGAAUUCUGCUGUAUAUCUC, the figure is 0.13; as for UAACAGGGGGCCCCAGCAGAAGCGUUCGCGUCGCAGCCCCUGUCAGACUCUGGCGAAUCUGCGAAUUCUGCUGUAUAUCUC, 0.09.

As for UAACAGGGGGCUACAGCAGAGGCGUUCACGUCGCAGCCACUGUCAGAUUCUGGUGAAUCUGCGAAUUCCGCUGUAUGUCUC, the self-cleavage turned out to be 0.04. With UAACAGGGGGCUACAGCAGAAGCGUUCACGUCGCAGCCCCUGUCGGAUUCUGGUGAACCUGCGAAUUCUGCUGUAUAUCUC the figure was 0.32; with UAACAGGGGGCCCCAGCGGAAGCGUUCACGACGCAGCCCCUGUCAGAUUCUGGUGAAUCUGCGAAUUCCGCUGUAUAUCUC, 0.75. With UAACAGGGGGCCCCAGCAGGAGCGUUCACGUCGCAGCCCCUGUCAGAUUCUGGUGAAUCUGCGAAUUCUGCUGUAGAUCUC the figure was 0.89; with UAACAGGGGGCCCCAGCUGAAGCGUUCACGUCGCAGCCCCUGUCAGAUUCUGGUGAAUCUGCGAAUUCUGCUGUACAUCUC, 0.06; with UAACAGGGGGCUACAGCAGAAGCGUUCACGUCGCAGCCCCUGUCAAAUUCUGGUGAACCUGCGAAUUCUGCUGUAUAUCUC, 0.15. As for UAACAGGGGGCUACAGCAGAAGCGUCCCCGUCGCAGCCCCUGUCAGAUUCUGGUGAAUCUGCGAAUUCAGCCGUAUAUCUC, the figure is 0.14; as for UAACAGGGGGCUACAGCAGAAGCGUUCACGUCGCAGCCCCUGUCAGAUUCUGGUGAAUCUGCGAGUUCUACUGCAUAUCUC, 0.51.

As for UAACAGGGGGCCCCGGCAGAAGCGUUCACGUCGCAGCCCCUGUCAGAUUCCGGUGAAUCUGCAAAAUCCGCAGUAUAUCUC, the self-cleavage was 0.36.

In the case of UAACAGGGGGCUACAGCAGAAGCGUUCACGUCGCAGCCCCUGUCAGGUUCAGGUGAAUCUGCGAAUUCUGCUGUAUAUCUC, the self-cleavage came out at 1.17.

In the case of UAACAGGGGGCUACAGCAGAAGCGUUCACGUCGCAGCCCUUGCCAGAUUCUGGUGAAUCUGCGAAUUCUGCUGUAUAUCUC, the self-cleavage came out at 0.2. As for UAACAGGGGGCUACAGCAGGAGCGUUCACGUCACAGCCCCUGUCAGAUUCUGGUGAAUCUGCGAAUUCUGCUGUAUAUCUC, the figure is 0.1. UAACAGGGGGCCCCAGCAGGAGCGUCCACGCCGCAGCCCCUGUCAGAUUCUGGUGAGUCUGCGAAUUCUGCUGUAUAUCUC: the self-cleavage was 0.13. As for UAACAGGGGGCUACAGCAGGAGCGUCCACGUCGCAGCCCCUGUCAGAUUCUGGUGAAUCUGCGAAUUCUGCUGUAUAUCCC, the figure is 0.53; as for UAACAGGGGGCUACAGCAGAAGCGUUCGCGUCACAGCCCCUGUCAGAUUCUGGAGAAUCUGCGAAUUCAGCUGUAUAUCUC, 0.07; as for UAACAGGGGGCCCCUGCAGAAGCGUUCACGUCGCAGUCCCUGUCAGAUUCCGGUGAAUCUGCGAAUUCUGCUGUAUAUCAC, 0.34. With UAACAGGGGGCCCCAGCAGAGGCGUUCACGUCGCAGCCCCAGUCAGAUUCCGGUGAAUCUGCGAGCUCUGCUGUAUAUCUC, the self-cleavage was determined as 0.17. As for UAACAGGGGGCUACAGCAGAAGCGUUCACGUCGCAGCCCCUGUCAAAUUCUGGUGAAUCUGCGAAUCCUGCUGUAUAUCUC, the figure is 0.14; as for UAACAGGGGGCUACAGCAGGAGCGUUCACGUCGCAGCCCCAGCCAGGUUCUGGUGAAUCUGCGAAUUCUGCUGUAUGUCUC, 0.05. With UAACAGGGGGCUACAGCAGAAGCGUCCUCGUCGCAGCCCCUGUCAGAUUCUGGUGUAUCUGCGAAUUCUGCUGUAUAUCUC the figure was 0.13. Turning to UAACAGGGGGCUACAGCAGAUGCGUUCACGUCGCAGCCCCUGUCAGAUUCUGGUGAAUCUGCGUAUUCUGCUGUAUAUCUC, the self-cleavage amounted to 0.48. With UAACAGGGGGCUACAGCAGUAGCGAUCACGUCGCAGCCCCUGUCAGAUUCUGGUGAAUCUGCGGAUUCUGCUGUAUAACUC the figure was 0.26. UAACAGGGGGCUACAGCUGAAGCGUUCACGUCGCAGCCCCUGUCGGAUCCUGGUGAAUCUGCGAAUACUGCAGUAUAUCUC: the self-cleavage came to 0.08. With UAACAGGGGGCUACAGCAGAAGCGUUCACGUCGCAGCCUCUGUCAGACUCUGGUGAAUCUGCGAAUCCUGCUGUAUAUCUC the figure was 0.07; with UAACAGGGGGCUACAGCAGGGGCGUUCACGUCGCAGCCCCUGUCAGAUUCUGGUGGAUCUGCGAAUUCCGCUGUAUAUCUC, 0.09; with UAACAGGGGGCUACAGCAGAAGCGCUCACGUCGCAGCCCCUGUCAGUUUCAGGUGAAUCUGCGAACUCUGCUGUAUGUCUC, 0.04.

On to UAACAGGGGGCUACAGCAGGAGCGUUCACGUCGCAGCCCCUGGCAGAUUCUGGUGAAUCUGCGAAUUCUGCUUUAUAUCUC, for which the self-cleavage amounted to 0.07. As for UAACAGGGGGCUACAGCAGGAGCGUUCACGACGCAGCCCCUGUCAGAUCCUGGAGAAUCUGCGAAUUCUGCUGUAUAUCUC, the figure is 0.35.

With UAACAGGGGGCCCCGGCAGGAGCGUUCACGUCGCAGCCCCUGUCAGAUCCUGGUGAAUCUGCGAAUUCUGCUGUAUAUCUC, the self-cleavage turned out to be 0.05.

For the variant UAACAGGGGGCCCCAGCAGAGGCGUUCACGUCGCAGCCCCAGUCAGAUUCUGGCGAAUCUGCGAGUUCUGCUGUAUAUCUC, the self-cleavage stood at 0.16.
